Results taken from the supplement of paper PMC8728848.
The list shows a part of the results.

How the values were obtained:
Assay in all cases: glycan array binding signal (z-score within array); higher = stronger binding
Conditions in all cases: glycan notation: IUPAC condensed, linker removed
[1] = target: Gal(b1-3)[Neu5Ac(a2-6)]GalNAc
Method in brief: (§1)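 Glycan array data were curated from 3228 arrays in the Consortium for Functional Glycomics database and kept only where the protein sequence was available. Glycan names were converted to IUPAC-condensed notation, and columns mapping to the same glycan were averaged. The binding signal is a within-array Z-score, averaged across arrays of the same protein sequence at different concentrations or buffers and across linkers. Negative Z-scores can be read as non-binding.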

[2] = target: Gal(b1-3)[Neu5Ac(a2-6)]GlcNAc(b1-6)Gal(b1-4)Glc
Method in brief: as §1

[3] = target: Gal(b1-3)[Neu5Ac(b2-6)]GalNAc
Method in brief: as §1

[4] = target: Gal(b1-4)GalNAc(a1-3)[Fuc(a1-2)]Gal(b1-4)GlcNAc
Method in brief: as §1

[5] = target: Gal(b1-4)GalNAc(b1-3)[Fuc(a1-2)]Gal(b1-4)GlcNAc
Method in brief: as §1

Gal(b1-4)Glc = target: Gal(b1-4)Glc
Method in brief: as §1

Gal(b1-4)Glc6S = target: Gal(b1-4)Glc6S
Method in brief: as §1

Gal(b1-4)GlcNAc = target: Gal(b1-4)GlcNAc
Method in brief: as §1

[6] = target: Gal(b1-4)GlcNAc(a1-6)Gal(b1-4)GlcNAc
Method in brief: as §1

[7] = target: Gal(b1-4)GlcNAc(b1-2)Man(a1-3)Man(b1-4)GlcNAc(b1-4)GlcNAc
Method in brief: as §1

[8] = target: Gal(b1-4)GlcNAc(b1-2)Man(a1-3)[Gal(b1-4)GlcNAc(b1-2)Man(a1-6)]Man(b1-4)GlcNAc(b1-4)GlcNAc
Method in brief: as §1

[9] = target: Gal(b1-4)GlcNAc(b1-2)Man(a1-3)[Gal(b1-4)GlcNAc(b1-2)Man(a1-6)]Man(b1-4)GlcNAc(b1-4)[Fuc(a1-6)]GlcNAc
Method in brief: as §1

[10] = target: Gal(b1-4)GlcNAc(b1-2)Man(a1-3)[GlcNAc(b1-2)Man(a1-6)]Man(b1-4)GlcNAc(b1-4)GlcNAc
Method in brief: as §1

[11] = target: Gal(b1-4)GlcNAc(b1-2)Man(a1-3)[Man(a1-6)]Man(b1-4)GlcNAc(b1-4)GlcNAc
Method in brief: as §1

[12] = target: Gal(b1-4)GlcNAc(b1-2)Man(a1-6)Man(b1-4)GlcNAc(b1-4)GlcNAc
Method in brief: as §1

[13] = target: Gal(b1-4)GlcNAc(b1-2)Man(a1-6)[GlcNAc(b1-2)Man(a1-3)]Man(b1-4)GlcNAc(b1-4)GlcNAc
Method in brief: as §1

[14] = target: Gal(b1-4)GlcNAc(b1-2)Man(a1-6)[Man(a1-3)]Man(b1-4)GlcNAc(b1-4)GlcNAc
Method in brief: as §1

[15] = target: Gal(b1-4)GlcNAc(b1-2)[Gal(b1-4)GlcNAc(b1-4)]Man(a1-3)[Gal(b1-4)GlcNAc(b1-2)Man(a1-6)]Man(b1-4)GlcNAc(b1-4)GlcNAc
Method in brief: as §1

[16] = target: Gal(b1-4)GlcNAc(b1-2)[Gal(b1-4)GlcNAc(b1-4)]Man(a1-3)[Gal(b1-4)GlcNAc(b1-2)[Gal(b1-4)GlcNAc(b1-6)]Man(a1-6)]Man(b1-4)GlcNAc(b1-4)GlcNAc
Method in brief: as §1

[17] = target: Gal(b1-4)GlcNAc(b1-3)Gal(b1-3)GlcNAc
Method in brief: as §1

[18] = target: Gal(b1-4)GlcNAc(b1-3)Gal(b1-4)Glc
Method in brief: as §1

[19] = target: Gal(b1-4)GlcNAc(b1-3)Gal(b1-4)GlcNAc
Method in brief: as §1

[20] = target: Gal(b1-4)GlcNAc(b1-3)Gal(b1-4)GlcNAc(b1-3)Gal(b1-4)GlcNAc
Method in brief: as §1

[21] = target: Gal(b1-4)GlcNAc(b1-3)Gal(b1-4)[Fuc(a1-3)]GlcNAc(b1-3)Gal(b1-4)[Fuc(a1-3)]GlcNAc
Method in brief: as §1

[22] = target: Gal(b1-4)GlcNAc(b1-3)GalNAc
Method in brief: as §1

[23] = target: Gal(b1-4)GlcNAc(b1-3)[Gal(b1-4)GlcNAc(b1-6)]Gal(b1-4)GlcNAc
Method in brief: as §1

[24] = target: Gal(b1-4)GlcNAc(b1-3)[Gal(b1-4)GlcNAc(b1-6)]GalNAc
Method in brief: as §1

[25] = target: Gal(b1-4)GlcNAc(b1-3)[GlcNAc(b1-6)]Gal(b1-4)GlcNAc
Method in brief: as §1

[26] = target: Gal(b1-4)GlcNAc(b1-6)Gal(b1-4)GlcNAc
Method in brief: as §1

[27] = target: Gal(b1-4)GlcNAc(b1-6)GalNAc
Method in brief: as §1

[28] = target: Gal(b1-4)GlcNAc(b1-6)[Gal(b1-3)]GalNAc
Method in brief: as §1

Gal3S(b1-3)GalNAc = target: Gal3S(b1-3)GalNAc
Method in brief: as §1

Gal3S(b1-3)GlcNAc = target: Gal3S(b1-3)GlcNAc
Method in brief: as §1

[29] = target: Gal3S(b1-3)[Fuc(a1-4)]GlcNAc
Method in brief: as §1

Gal3S(b1-4)Glc = target: Gal3S(b1-4)Glc
Method in brief: as §1

Gal3S(b1-4)Glc6S = target: Gal3S(b1-4)Glc6S
Method in brief: as §1

Gal3S(b1-4)GlcNAc = target: Gal3S(b1-4)GlcNAc
Method in brief: as §1

Gal3S(b1-4)GlcNAc6S = target: Gal3S(b1-4)GlcNAc6S
Method in brief: as §1

B1: Lmo1413 (Listeria monocytogenes), Q8Y783 (protein)
chain: MKHAKKSLFTFIIFMTILSITFNPFSAKAAPLMLNLPAPQVDQLYIGDDYITGKLQQEVPMHYPGNAAYVLFNNKQYNITDYTVENDVNFRLKLPKTLEAGDTLNYFTITGNVLDPVAYPGQESYKLAGPFSPIEKANIQVNYVDETNQTLATSDTLSGKLGETYTTSPKAIDGYQVKETPTNATGTYTTNTETIQINYVYEKTAVEGANVSVEYINEATNESIAPTETLSGKIGTTFQAEVKEIDGYELSQVPSNQSGTYTDQTQSVIFKYKKITTPDEVAKDVTVTYKDTKGNQLADPVILKGDIGSTFETEAKSFKGYKLTKTPSNHSSVFTSDSQEVEYVYSKDDAVITPPVTPVNPDKPIINPVKPVNPATSTVPNKNISKKNTTKTVNQTGKTSTALQLPKTGDSENNLPLIIGVSLLISGVYIFTTRRKRVK
Q: For B1, which “glycan array binding signal (z-score)” value [1] is on record?
A: Its value is 0.182.

Q: What about the “glycan array binding signal (z-score)” value [2] of the same binder?
A: Its value is -0.113.

Q: What about the “glycan array binding signal (z-score)” value [3] of the same binder?
A: The value was 2.02.

Q: And the “glycan array binding signal (z-score)” value [4]?
A: Its value is 0.26.

Q: And the “glycan array binding signal (z-score)” value [5]?
A: Its value is 0.144.

Q: What about the “glycan array binding signal (z-score)” value (Gal(b1-4)Glc) of the same binder?
A: The value was 0.007.

Q: What about the “glycan array binding signal (z-score)” value (Gal(b1-4)Glc6S) of the same binder?
A: The value was 0.199.

Q: What about the “glycan array binding signal (z-score)” value (Gal(b1-4)GlcNAc) of the same binder?
A: Its value is -0.099.

Q: What about the “glycan array binding signal (z-score)” value [6] of the same binder?
A: Its value is 0.12.

Q: And the “glycan array binding signal (z-score)” value [7]?
A: The value was -0.199.

Q: And the “glycan array binding signal (z-score)” value [8]?
A: The value was -0.24.

Q: And the “glycan array binding signal (z-score)” value [9]?
A: Its value is -0.264.

Q: What about the “glycan array binding signal (z-score)” value [10] of the same binder?
A: Its value is -0.192.

Q: And the “glycan array binding signal (z-score)” value [11]?
A: The value was -0.229.

Q: What about the “glycan array binding signal (z-score)” value [12] of the same binder?
A: Its value is -0.247.

Q: What about the “glycan array binding signal (z-score)” value [13] of the same binder?
A: Its value is -0.269.

Q: What about the “glycan array binding signal (z-score)” value [14] of the same binder?
A: The value was -0.244.

Q: And the “glycan array binding signal (z-score)” value [15]?
A: Its value is -0.188.

Q: And the “glycan array binding signal (z-score)” value [16]?
A: The value was -0.254.

Q: What about the “glycan array binding signal (z-score)” value [17] of the same binder?
A: The value was -0.238.

Q: What about the “glycan array binding signal (z-score)” value [18] of the same binder?
A: The value was -0.055.

Q: And the “glycan array binding signal (z-score)” value [19]?
A: The value was -0.146.

Q: And the “glycan array binding signal (z-score)” value [20]?
A: The value was -0.045.

Q: And the “glycan array binding signal (z-score)” value [21]?
A: The value was -0.21.

Q: What about the “glycan array binding signal (z-score)” value [22] of the same binder?
A: The value was -0.159.

Q: What about the “glycan array binding signal (z-score)” value [23] of the same binder?
A: The value was -0.176.

Q: What about the “glycan array binding signal (z-score)” value [24] of the same binder?
A: The value was -0.234.

Q: What about the “glycan array binding signal (z-score)” value [25] of the same binder?
A: The value was 0.359.

Q: What about the “glycan array binding signal (z-score)” value [26] of the same binder?
A: Its value is 0.233.

Q: What about the “glycan array binding signal (z-score)” value [27] of the same binder?
A: Its value is 0.3.

Q: What about the “glycan array binding signal (z-score)” value [28] of the same binder?
A: Its value is -0.058.

Q: And the “glycan array binding signal (z-score)” value (Gal3S(b1-3)GalNAc)?
A: The value was 0.564.

Q: And the “glycan array binding signal (z-score)” value (Gal3S(b1-3)GlcNAc)?
A: The value was -0.101.

Q: And the “glycan array binding signal (z-score)” value [29]?
A: The value was -0.055.

Q: What about the “glycan array binding signal (z-score)” value (Gal3S(b1-4)Glc) of the same binder?
A: The value was -0.163.

Q: And the “glycan array binding signal (z-score)” value (Gal3S(b1-4)Glc6S)?
A: The value was -0.125.

Q: What about the “glycan array binding signal (z-score)” value (Gal3S(b1-4)GlcNAc) of the same binder?
A: Its value is -0.163.

Q: What about the “glycan array binding signal (z-score)” value (Gal3S(b1-4)GlcNAc6S) of the same binder?
A: Its value is -0.052.
